Results on 47 compounds are retold here after PubChem BioAssay AID1963576 (National Center for Advancing Translational Sciences (NCATS), 2024).

Screen size: about 46,000 compounds; about 60 (0.1%) were called active. Inconclusive results (about 3%) are left out. Calls follow the shape of the dose curve; as a rule, active = well fitted inhibition curve with a large enough effect; inconclusive = small, poorly fitted or top-dose-only effect; inactive = no such curve, though single readings can be large or run the other way. This is one part of the list.

A short description of the test: Primary qHTS assay for Inhibitors of ovarian cancer metastasis using an organotypic tumor microenvironment (TME) model. Also: nearly all actives have a fitted effect of over 65% in size.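 As to activity change, negative = inhibition: plate controls were DMSO wells for no effect and tomatine positive control wells for full effect.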 Conditions: SKOV3ip1-GFP adhesion/invasion on 3D omental model, fluorescence; series mostly up to 45.8 µM; activity change, negative = inhibition: at the top concentration. In short, it runs like this: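 Primary human omental fibroblast/mesothelial 3D culture pre-formed 48 h. SKOV3ip1-GFP cells added with compounds (0.36-46 umol/L), incubated 2 h RT/16 h 37 C, fixed; GFP cells quantified at 488/509 nm.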
For the compound `CCOc1ccc(CNC(=O)c2ccc(Sc3ccc(C)cc3)c(N)c2)cc1OC`, the “activity change, negative = inhibition” value was inactive: -13.9%.
Regarding `CCn1c(=O)c2cc(C(=O)NCCc3ccc(OC)c(OC)c3)sc2c2ccccc21`, the “activity change, negative = inhibition” value is inactive: -15.7%.
For the compound `Cc1ccc2nc(Cl)c3cc(C(=O)N4CCCC(C)C4)sc3c2c1` (configuration not stated), the “activity change, negative = inhibition” value is inactive: 14.5%.
As to `COc1ccc(OCC(=O)Nc2ccc3c(c2)N(C)C(=O)c2ccccc2S3)cc1`, the “activity change, negative = inhibition” value was inactive: -0.319%.
For the compound `CC(C)CN(CC(C)C)c1nnc(NC(=O)Nc2cccc(C(F)(F)F)c2)s1`, the result was inactive.
As for `CCc1ccccc1NC(=O)c1cc(S(=O)(=O)N2CCC(C)CC2)cn1C`, the result was inactive.
As to `CC(=O)Nc1sc2c(c1-c1nc3ccccc3s1)CNC2`, the “activity change, negative = inhibition” value was inactive: -11.3%.
For `CCOC(=O)c1cc(-c2ccc(C)cc2)n(CC(=O)Nc2cc(C)ccc2C)c1C`, the outcome was inactive.
The same measure, in the same setting: the result for `CC1=C(C(=O)Nc2ccc(C)cc2C)C(c2cc(Br)ccc2F)n2ncc(C(=O)Nc3ccc(C)cc3)c2N1` (configuration not stated) reads “inactive”.
Turning to `COc1ccc(-c2cc(C(F)(F)F)n3nc(C(=O)Nc4cccc(Cl)c4Cl)cc3n2)cc1OC`, the “activity change, negative = inhibition” value is inactive: -2.19%.
`COC(=O)CSc1nnc(-c2cccc(O)c2)o1`: the “activity change, negative = inhibition” value was inactive: -1.74%.
Still for that read-out and setting: the result for `COC(=O)Cn1c(SCCOc2ccccc2Cl)nc2ccccc21` reads inactive: 6.26%; that for `O=C(CCS(=O)(=O)c1nc(-c2ccc3c(c2)OCO3)cc(C(F)(F)F)n1)Nc1ccccc1C(F)(F)F`, inactive: -4.66%; that for `O=C(Cc1ccc(F)cc1)NCCc1csc2nc(-c3ccc(Cl)cc3)nn12`, inactive: -27.8%.
Turning to `CCN1C(=O)c2ccccc2S(=O)c2ccc(C(=O)N3CCN(c4cccc(Cl)c4)CC3)cc21` (configuration not stated), the outcome was inactive.
As to `COC(=O)c1cc(NC(=O)CCc2c(C)nc3nc(C)nn3c2C)cc(C(=O)OC)c1`, the “activity change, negative = inhibition” value was inactive: -22.8%.
Regarding `CCOc1ccc(NC(=O)Cn2cc(C(=O)c3ccccc3)c(=O)c3cc(OC)ccc32)cc1`, the compound was called inactive.
Turning to `Cc1cccc(CC(=O)Nc2cccc(-c3cn4cccnc4n3)c2)c1`, the “activity change, negative = inhibition” value is inactive: -0.792%.
In the case of `Cc1ccc2c(c1)-c1onc(C(=O)N(C)c3ccc(F)cc3)c1CO2`, the “activity change, negative = inhibition” value was inactive: -1.6%.
Still for that read-out and setting: the figure for `CCOC(=O)Cn1c(=O)cc(C)c2c(C)nn(-c3cccc(F)c3)c21` is inactive: 9.05%.
On the same count and under the same terms, the figure for `Cc1ccc(-n2ncc3c(=O)n(Cc4cccc(C(F)(F)F)c4)cnc32)cc1C` is inactive: 2.65%.
Still for that read-out and setting: the result for `CC1=C(C(=O)Nc2ccccc2C)C(c2ccc[nH]2)n2ncnc2N1` (configuration not stated) reads inactive: -21.6%.
In the case of `CCCCn1c(SCc2ccccc2C#N)nc2c(sc3ccccc32)c1=O`, the “activity change, negative = inhibition” value was inactive: 8.09%.
On the same count and under the same terms, the figure for `COc1ccc(CNC(=O)C2CCN(S(=O)(=O)Cc3ccccc3)CC2)cc1` is inactive: -12.4%; for `Cc1cccc(NC(=O)c2cc3c(C)nn(-c4ccccc4)c3s2)c1` it is inactive: -4.51%.
Same read-out and setting: the result for `CCc1ccc(S(=O)(=O)Nc2ccc3oc(C)c(C(=O)OCCOC)c3c2)cc1` reads inactive: -7.51%; that for `COc1ccc(NC(=O)c2ccc(-c3nc(CSc4ccccc4)c(C)o3)cc2)c(OC)c1`, inactive: -7.75%.
For `CCCCN(c1ccccc1)S(=O)(=O)c1cc2c3c(c1)C(C)C(=O)N3CCC2` (configuration not stated), the call was inactive.
Still for that read-out and setting: the entry for `O=C(CCc1nnc2n(Cc3ccccc3Cl)c(=O)c3ccccc3n12)Nc1ccccc1` is “inactive”.
In the case of `CCOC(=O)c1[nH]c(C)c(C(=O)NCc2ccccc2Cl)c1C`, the “activity change, negative = inhibition” value is inactive: -21.8%.
Same read-out and setting: the result for `O=C(NCc1ccc2c(c1)CCN2C(=O)c1ccncc1)c1cccc(F)c1` reads inactive: 0.502%; that for `Cc1ccn2c(=O)c(NC(=O)c3cccc([N+](=O)[O-])c3C)c(C)nc2c1`, inactive: -6.75%.
Same read-out and setting: the figure for `Cc1nn(-c2ccc(N3CCCCC3)nn2)c(C)c1CCC(=O)Nc1cccc(F)c1` is inactive: -4.97%.
Still for that read-out and setting: the figure for `O=c1cc(-c2ccccc2)nc(SCc2nc(-c3cccc(C(F)(F)F)c3)no2)[nH]1` is inactive: -3.34%; for `CCN(CCCNC(=O)CN1N=C(c2ccc(C)cc2)CCC1=O)c1ccccc1` it is inactive: -20.8%.
For the compound `Cc1ccc(COC(=O)c2ccc(-c3nnn(Cc4ccc(C)cc4)n3)cc2)cc1`, the outcome was inactive.
Take `Fc1ccc(-n2ncc3c(NCCCc4ccccc4)ncnc32)cc1`: the “activity change, negative = inhibition” value is inactive: 25%.
Same read-out and setting: the result for `CCOC(=O)C1CCCN(S(=O)(=O)c2cc(Br)cc3c2N(C(=O)CC)CC3)C1` (configuration not stated) reads inactive: 7.08%; that for `CCOc1ccc(C2c3[nH]c4ccccc4c3CCN2C(=O)CCC2CCCC2)cc1` (configuration not stated), inactive: -1.58%; that for `CN1CCC(=C2c3ccccc3CC(=O)c3sccc32)CC1`, inactive: -1.2%.
Take `CCCCN(CC)C(=O)Cn1cc2c(n1)-c1c(oc(C(=O)N3CCCC3)c1C)CC2`: the call was inactive.
`CC(=O)C(Sc1nc(-c2ccccc2Cl)nc2c1c(=O)n(C)c(=O)n2C)C(=O)N(C)C` (configuration not stated): the “activity change, negative = inhibition” value was inactive: -8.61%.
Turning to `Cc1ccc(CNC(=O)c2cn(C)c3ccc(S(=O)(=O)N4CCC(C)CC4)cc3c2=O)cc1`, the result was inactive.
Still for that read-out and setting: the result for `CCOC(=O)c1cccc(NC(=O)NC2COc3ccccc3C2)c1` (configuration not stated) reads “inactive”.
For the compound `COc1ccc(OC)c(CNc2ncc(-c3ccc(Cl)cc3)n2C)c1`, the “activity change, negative = inhibition” value is inactive: 0.707%.
With `COc1cc(NC(=O)C2CCN(S(=O)(=O)c3c(C)noc3/C=C/c3c(C)cc(C)cc3C)CC2)cc(OC)c1`, the call was inactive.
In the case of `Cc1cccc(C)c1NC(=O)c1cc2sccc2n1Cc1ccc(F)cc1`, the “activity change, negative = inhibition” value was inactive: 2.46%.
